Test results: paper PMC4336329 (PLoS ONE, 2015)
In all, about 310,000 compounds went through this assay and about 14,000 (4.5%) showed an effect of 50% or more. The effect is printed as a negative number. The list shows a part of the results.

Molecular target: human ether-à-go-go-related gene (hERG) potassium channel (human, UniProt Q12809)
Assay: primary screen, population patch clamp on CHO cells stably expressing hERG
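Also: peak tail current of the secondary pulse compared with the same well before compound.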

human ether-à-go-go-related gene (hERG) potassium channel, sequence (Q12809 whole entry, looked up): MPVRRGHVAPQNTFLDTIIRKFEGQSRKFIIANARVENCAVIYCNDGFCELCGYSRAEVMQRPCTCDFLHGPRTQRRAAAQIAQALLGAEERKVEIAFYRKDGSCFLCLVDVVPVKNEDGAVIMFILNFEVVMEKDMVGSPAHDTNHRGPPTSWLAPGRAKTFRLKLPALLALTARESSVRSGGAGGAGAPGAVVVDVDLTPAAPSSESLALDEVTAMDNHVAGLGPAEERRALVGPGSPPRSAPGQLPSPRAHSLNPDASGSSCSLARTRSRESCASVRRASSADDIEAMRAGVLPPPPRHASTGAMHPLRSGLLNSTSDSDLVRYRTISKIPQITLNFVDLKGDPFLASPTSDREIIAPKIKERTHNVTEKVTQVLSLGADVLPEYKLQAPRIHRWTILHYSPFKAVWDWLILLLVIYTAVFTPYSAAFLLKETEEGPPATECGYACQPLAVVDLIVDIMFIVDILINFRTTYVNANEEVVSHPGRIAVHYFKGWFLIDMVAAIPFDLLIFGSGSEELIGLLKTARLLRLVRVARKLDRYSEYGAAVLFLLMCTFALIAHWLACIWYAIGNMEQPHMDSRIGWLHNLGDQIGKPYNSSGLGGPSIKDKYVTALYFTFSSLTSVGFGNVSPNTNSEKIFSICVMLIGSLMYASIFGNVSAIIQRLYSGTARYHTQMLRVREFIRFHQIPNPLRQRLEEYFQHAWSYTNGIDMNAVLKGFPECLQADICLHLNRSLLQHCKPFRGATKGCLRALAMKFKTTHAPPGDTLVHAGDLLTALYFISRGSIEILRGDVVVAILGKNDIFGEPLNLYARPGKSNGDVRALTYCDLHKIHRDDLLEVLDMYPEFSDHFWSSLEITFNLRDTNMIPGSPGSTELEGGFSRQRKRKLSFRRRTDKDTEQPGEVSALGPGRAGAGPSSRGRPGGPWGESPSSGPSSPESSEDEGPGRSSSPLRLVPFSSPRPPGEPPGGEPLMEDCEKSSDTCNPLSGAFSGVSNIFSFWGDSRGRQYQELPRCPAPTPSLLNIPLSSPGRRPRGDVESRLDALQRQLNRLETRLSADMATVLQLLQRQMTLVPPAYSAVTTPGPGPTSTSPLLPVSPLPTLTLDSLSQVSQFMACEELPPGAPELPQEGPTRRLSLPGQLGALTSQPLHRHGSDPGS

Structure (SMILES)	hERG current change (%, negative = inhibition) at 10uM [%]
CCN1CCN(c2nc(N)c([N+](=O)[O-])c(Nc3ccc(C)cc3)n2)CC1	-68.9
CCC1Nc2ncnc(N3CCOCC3)c2N(Cc2ccccc2)C1=O.O=C(O)C(F)(F)F (centres unmarked)	4.69
Cc1cc(C)cc(NC(=O)CSc2nnc(-c3ccccc3)n2N)c1	6.38
COc1ccc(NC(=O)c2cccc(Oc3ccccc3)c2)cn1	3.97
CCCc1nnc(SCC(=O)N2CCCCC2C)n1CCCOC (centres unmarked)	-0.164
CC(OC(=O)C1CCC1)C(=O)Nc1cc(Cl)cc(Cl)c1 (centres unmarked)	-0.428
COc1ccc(-n2c(=O)c3c4c(sc3n(Cc3cccc(F)c3)c2=O)CN(C(C)=O)CC4)c(OC)c1	-5.37
CN(C)C(=O)c1ccc(NC(=O)CC2SC(N3CCCC3)=NC2=O)cc1 (centres unmarked)	20.7
CCOc1ccc(CCNC(=O)c2[nH]c(C)c(C(C)=O)c2CC)cc1OCC	-6.52
CCOc1ccccc1C(=O)NCCCCNC(=O)c1ccccc1OCC	-31.4
COC(=O)C1=C(Nc2ccccc2NC(=O)CCCC(=O)O)CSC1	12.9
COCCn1c(-c2ccco2)nc2nc3ccccc3nc21	2.99
O=C(Oc1cc(=O)n2ccccc2n1)c1ccccc1	8.88
CCN(CC)S(=O)(=O)c1ccc(OC)c(NC(=O)c2cc(=O)[nH]c3ccccc23)c1	-17.4
C=CCn1c(=O)c(C(=O)NCCN(CC)CC)c(O)c2ccccc21.Cl	-19.2
Cc1ccc(-n2nc(C(=O)O)c(O)cc2=O)cc1	19.5
Cc1nnc(SCC(=O)Nc2sccc2C#N)s1	11.8
Cc1ccc(-n2c(=O)c3sccc3n(CC(=O)NCC3CCCO3)c2=O)cc1F (centres unmarked)	13
O=C(O)/C=C/c1cn(-c2ccccc2)nc1-c1ccccc1	3.71
Cc1cccn2cc(-c3cccc(S(=O)(=O)N4CCOCC4)c3)nc12	0.676
COc1ccc(C(=O)c2cnc[nH]2)cc1OC	10.9
CCOc1ccc(C(C)=O)cc1COC(=O)C(C)N=C1NS(=O)(=O)c2ccccc21 (centres unmarked)	-1.19
CCOc1cc(-c2ccc(N)c(OCC)c2)ccc1N	-10.2

Structure (SMILES)	hERG current change (%, negative = inhibition) at 10uM [%]
C=C(Br)Cn1c(CCCC)nc2ccccc21	-21.6
CC(C)(C)c1nnc(NS(=O)(=O)c2cc(Cl)ccc2Cl)s1	0.251
COCCN1C(=O)c2ccccc2C(C(=O)NCCCN2CCCC2)C1c1c[nH]c2ccccc12 (centres unmarked)	2.6
CC(C)(Oc1ccc(Cl)cc1)C(=O)Nc1ccc(S(=O)(=O)Nc2ncccn2)cc1	-1.07
Cn1c(N)c(C(=O)COC(=O)CCCc2nc3ccccc3s2)c(=O)n(C)c1=O	9.03
COc1cccc(NC(=O)NCCCCc2ccccc2)c1	4.28
CC1(C)Cc2nc(-c3ccccc3)nc(SCC(=O)N3CCOCC3)c2CO1	-2.27
O=[N+]([O-])c1ccccc1CN1CCN(Cc2ccc3ccccc3c2)CC1	-38
CC1CCN(CCCNC(=O)c2ccc(CSCc3cccc(Cl)c3)o2)CC1	-74.8
C/C(=N/NC(=O)c1ccc(C)s1)c1cccnc1	7.6
CN(Cc1ccc(OC(F)F)cc1)C(=O)c1ccc(S(=O)(=O)N(C)c2ccccc2)cc1	-46.8
COCCCNC(=O)/C(C#N)=C/c1c(N2CCN(c3ccc(OC)cc3)CC2)nc2c(C)cccn2c1=O	0.982
Cc1ccc(-c2nn(C)c(=O)c3ccccc23)cc1S(=O)(=O)N1CCCC1	-40.6
CCNC(=O)Cc1c(OC)ccc2cc(Br)ccc12	2.16
CCC(C)N1C(=O)CCC1C(=O)NCc1ccc2c(c1)OCO2 (centres unmarked)	4.3
COCCC(=O)N1CCCC(CCC(=O)NCc2ccc(F)c(F)c2)C1 (centres unmarked)	22.8
COc1ccccc1C(=O)Nc1ccnn1C1CCN(Cc2cn(C)c3ccccc23)CC1	-83.6
Cc1ccc(-n2nc(C)c3c2OC(N)=C(C#N)C3c2ccoc2)cc1 (centres unmarked)	3.53
CCOC(=O)C1=C(CCc2ccccc2)NC(=O)NC1c1ccc(Br)cc1 (centres unmarked)	12.7
CCOC(=O)c1cc(-c2ccccc2)sc1NC(=O)C(C)OC(=O)c1cccnc1OCC (centres unmarked)	-9.65
COc1cc(/C=N/N2CCCCC2)cc(OC)c1O.O=P(O)(O)O	18
CCCCN(CCCC)CCn1cnc2c([nH]c3ccc(OC)cc32)c1=O	-36.6
CN(CC#CC1(O)c2ccccc2-c2ccccc21)Cc1ccccc1	3.5

Structure (SMILES)	hERG current change (%, negative = inhibition) at 10uM [%]
COc1ccc(OC)c(S(=O)(=O)n2cccn2)c1	17.1
CSCC[C@H](NC(=O)OC(C)(C)C)c1nnc(SCC(=O)Nc2ccc(C)cc2C)o1	-50.1
COc1cc(/C=N/NC(=O)c2cccc([N+](=O)[O-])c2)ccc1OC(=O)c1ccco1	2.97
Brc1ccccc1OCCN1CCOCC1.O=C(O)C(=O)O	11
Cc1nc(CNS(=O)(=O)c2cccnc2)cs1	-9.3
CCOc1ccc(NC(=O)C(=O)N/N=C/c2ccccc2F)cc1	22.7
O=C(Nc1ccon1)C1CCN(S(=O)(=O)c2cccs2)CC1	-8.73
CC(=O)c1c(C)[nH]c(C(=O)CSc2nnc(-c3ccco3)o2)c1C	-4.61
COc1ccc(S(=O)(=O)N2CCOCC2)cc1C(=O)N(C)Cc1ccccc1F	-37.8
COc1ccc(CN(C)Cc2nc(Cc3ccccc3Cl)no2)cc1OC	-10.9
CCN(c1cccc(C)c1)S(=O)(=O)c1ccc2c(c1)oc(=O)n2C	9.9
CCCn1c(O)c2ccc(C(=O)N=NC(=O)c3cccnc3)cc2c1O	0.483
O=C(c1cccc(Br)c1)N1CCN(C(=O)N2CCCCC2)CC1	-1.2
COc1ccc(NC(=S)Nc2ccccn2)cc1	13.5
O=C(NCC(=O)N1CCN(c2ccc(C(F)(F)F)cn2)CC1)c1ccc(Br)o1	-71.8
O=C(Nc1cc(Cl)ccc1N1CCOCC1)c1ccc2c(c1)OCCO2	30.3
CCOC(=O)N1CCC(NC(=O)CCN2C(=O)COc3ccccc32)CC1	8.33
CC1=NN(c2ccccc2)C(=O)/C1=C\c1cc(C)n(-c2ccccc2)c1C	11.4
COc1cccc(NC(=O)CCC2CCN(C(=O)c3c(C)noc3C)CC2)c1	9.04
CC1=NN(c2nc(-c3ccccc3)cs2)C(=O)C1	15.9
CC1CCCN(C(=O)NC2CC(=O)N(c3ccc4c(c3)OCCO4)C2)C1 (centres unmarked)	3.96
CCc1ccccc1NS(=O)(=O)c1c(C(=O)N2CCCCCC2)c(C)n(C)c1C	-25.3
O=C(CSc1nnc(-c2ccc(F)cc2)c2ccccc12)Nc1c(F)cccc1F	-31.7

Structure (SMILES)	hERG current change (%, negative = inhibition) at 10uM [%]
COc1cc(NC(=O)c2ccc(F)cc2)c(OC)cc1NC(=O)CN1CCCCC1.Cl	-23.1
COc1ccc(OC)c(-c2nc(C(=O)NC3CCN(Cc4ccccc4)CC3)cc3c2[nH]c2ccccc23)c1	-43.5
O=C(Nc1nc(-c2ccccc2)c(-c2ccccc2)o1)c1ccc(F)cc1	-15
NC(=O)CSc1nccn1Cc1ccc2c(c1)OCO2	19.2
Cc1ccc(C)c(NC(=O)C(Sc2nc3ccccc3c(=O)n2CC(C)C)c2ccccc2)c1 (centres unmarked)	-11.5
CC1CCCCC1n1c(-c2cccnc2)n[nH]c1=S (centres unmarked)	40.2
Cc1ccc2c(C(=O)CNc3nncs3)c(C)[nH]c2c1	21.1
Cc1ccc(C(=O)NCCC(=O)NCc2ccco2)cc1	9.59
O=C(Nc1cccn(Cc2c(Cl)cccc2Cl)c1=O)c1c(Cl)cccc1Cl	2.73
COc1ccc(N(C(C)=O)c2nc(C)cc(C)c2C#N)c(OC)c1	11.3
Cc1ccccc1C(=O)Nc1ccccc1NC(=O)c1ccccc1C	14.8
CCCCC1OC2(C)OC(=N)C1(C#N)C(C#N)(C#N)C2c1ccccc1 (centres unmarked)	-6.51
CC1SC2(CN3CCC2CC3)NC1=O (centres unmarked)	18
COc1cc(NC(=O)c2cccs2)c(C(=O)OCC(=O)NCc2ccccc2)cc1OC	11.5
CNC(=S)N/N=C(\C)c1ccc2c(c1)OCO2	19.8
COc1ccc(CCNC(=O)C2CCN(S(C)(=O)=O)CC2)cc1OC	10.6
COc1cccc(C=Nc2cccc3c(=O)[nH][nH]c(=O)c23)c1O	14.2
Cc1nc(-c2coc3c(CN(C)C)c(O)ccc3c2=O)cs1	21.9
CN(Cc1ccc(Cl)c(Cl)c1)C(=O)CN1C(=O)NC2(CCCC2)C1=O	-7.19
COc1ccc(CC(=O)Nc2ncc([N+](=O)[O-])s2)cc1OC	25.5
